Assay results as given in the supplement of paper PMC3334620.
Over roughly 33,000 sequences, “E-score (-0.5 to 0.5)” has its median near -0.054; the highest 2% begin near 0.35. The list shows a part of the results.

Target: T1, Stb5 (UniProt P38699)
T1 sequence: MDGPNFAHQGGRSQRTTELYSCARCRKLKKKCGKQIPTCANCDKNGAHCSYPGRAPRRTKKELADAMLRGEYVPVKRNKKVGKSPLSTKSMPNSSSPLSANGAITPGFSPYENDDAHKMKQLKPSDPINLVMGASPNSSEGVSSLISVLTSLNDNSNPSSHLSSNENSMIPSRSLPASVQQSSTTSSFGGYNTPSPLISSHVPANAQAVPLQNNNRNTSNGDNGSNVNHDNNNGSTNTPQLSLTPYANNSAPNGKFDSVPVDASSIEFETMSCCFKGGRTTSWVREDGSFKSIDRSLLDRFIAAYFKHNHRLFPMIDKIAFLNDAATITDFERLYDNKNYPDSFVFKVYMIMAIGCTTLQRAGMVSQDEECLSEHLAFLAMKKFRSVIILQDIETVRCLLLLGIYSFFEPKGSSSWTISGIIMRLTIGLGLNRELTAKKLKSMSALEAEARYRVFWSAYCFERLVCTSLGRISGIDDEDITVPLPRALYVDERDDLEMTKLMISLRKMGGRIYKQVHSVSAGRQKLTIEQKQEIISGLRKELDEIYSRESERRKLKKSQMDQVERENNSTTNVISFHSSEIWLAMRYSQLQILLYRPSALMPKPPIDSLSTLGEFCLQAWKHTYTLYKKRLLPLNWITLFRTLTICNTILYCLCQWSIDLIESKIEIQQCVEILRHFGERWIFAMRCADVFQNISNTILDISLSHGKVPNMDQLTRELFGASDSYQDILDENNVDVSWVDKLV
Experiment: PBM E-score (8-mer binding enrichment) (E-score (-0.5 to 0.5)); higher = stronger / more preferred TF binding; most listed sequences are background and not binding sites
Conditions: protein concentration: 200 nM; construct: GST-full length
Outline: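 Bound GST-tagged yeast transcription factors, applied at about 100-200 nM to double-stranded universal all-10-mer Agilent arrays, were detected with fluorescent anti-GST. Scans were normalised with masliner. A modified Wilcoxon-Mann-Whitney statistic, the E-score, was assigned to each ungapped eight-base word pooled with its reverse complement by the Universal PBM Analysis Suite.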

First: GGACCTCA
Second: ATGAGGGC
The “PBM E-score” value of the first is lower: -0.141 for the first, 0.0457 for the second.

Going from AGCTTAAA to CGGTAAGC, the “PBM E-score” value rises from 0.0475 to 0.109.

Going from AACCTATG to GTCGCGAC, the “PBM E-score” value rises from -0.17 to 0.141.

First: CCGCAAGC
Second: CTTAGCAA
The “PBM E-score” value of the first is higher: 0.179 for the first, -0.123 for the second.

Compared with CACGTGCA, ACTGATTC is higher in “PBM E-score” value: -0.216 for the first, 0.0161 for the second.

Going from GAAATTCA to ACCTTAGA, the “PBM E-score” value rises from -0.0853 to 0.0651.

Going from AGAAGCTG to AGGATGCC, the “PBM E-score” value rises from -0.215 to -0.136.

Compared with ACAGATTA, AGTAGAAC is lower in “PBM E-score” value: -0.0193 for the first, -0.158 for the second.

Going from ATCATAAC to GGATCTTA, the “PBM E-score” value rises from -0.0841 to 0.172.

First: CCAGTAGA
Second: CTAGAAGC
The “PBM E-score” value of the first is lower: -0.298 for the first, 0.0799 for the second.

Going from AGCATTCG to ATCTTAAC, the “PBM E-score” value rises from -0.0721 to 0.018.

Going from CAAAAAGC to CGCGCGGC, the “PBM E-score” value rises from 0.151 to 0.327.

Compared with AACAATTC, AGGTTTAG is higher in “PBM E-score” value: -0.211 for the first, 0.0353 for the second.

Going from ATTGTCCA to CAGGTCTC, the “PBM E-score” value falls from -0.191 to -0.271.

Compared with TATCCCGA, CCTGGCAC is lower in “PBM E-score” value: 0.18 for the first, 0.0119 for the second.

Going from AATTAGTG to CTATTAAA, the “PBM E-score” value rises from -0.224 to -0.156.

Compared with TCGTTCAA, GAATCCCA is lower in “PBM E-score” value: -0.0843 for the first, -0.198 for the second.

Compared with CAGGGCCG, CGGAGTCA is higher in “PBM E-score” value: 0.237 for the first, 0.391 for the second.

Going from AGTATAAC to GGTTAACA, the “PBM E-score” value falls from 0.228 to 0.0986.

Going from CCCGGCTA to CAACCCTC, the “PBM E-score” value falls from 0.337 to -0.284.

Compared with ATTGCTGC, AATATCTG is higher in “PBM E-score” value: -0.11 for the first, -0.0221 for the second.

Going from TAGTTCCA to CACTGGGA, the “PBM E-score” value falls from -0.0228 to -0.362.

Compared with AATGGTGC, AGGGGGGA is lower in “PBM E-score” value: 0.085 for the first, -0.38 for the second.

Compared with ATTCTTCA, CGGTACAC is higher in “PBM E-score” value: -0.0547 for the first, 0.181 for the second.

Going from GACTGATA to AGCTCCGC, the “PBM E-score” value rises from 0.0874 to 0.406.

Compared with AACAAGAC, ACTAACGC is higher in “PBM E-score” value: -0.115 for the first, 0.0901 for the second.

First: ACTGAACC
Second: CTGATGTC
The “PBM E-score” value of the first is higher: 0.214 for the first, -0.0208 for the second.

Going from GGGCATCA to AACGGCGA, the “PBM E-score” value rises from 0.00165 to 0.287.

Going from ATGACACC to ACTCCTAG, the “PBM E-score” value falls from 0.317 to -0.158.

First: GGGGCTGA
Second: TCGGAACA
The “PBM E-score” value of the first is lower: -0.185 for the first, 0.0826 for the second.

Going from AATGGACG to GAGCGTCC, the “PBM E-score” value falls from 0.0503 to -0.055.

First: AGAGTCGC
Second: AAGGGCCT
The “PBM E-score” value of the first is lower: -0.188 for the first, -0.185 for the second.

First: GAAACCGC
Second: AATGTTGG
The “PBM E-score” value of the first is higher: 0.211 for the first, 0.00207 for the second.

Compared with ATTTAACG, CGTAGCCC is lower in “PBM E-score” value: 0.207 for the first, 0.021 for the second.

First: ACGTATCT
Second: CCAATGCC
The “PBM E-score” value of the first is lower: -0.0649 for the first, 0.154 for the second.

Compared with ATCGATTA, GCACTACA is lower in “PBM E-score” value: -0.0417 for the first, -0.0984 for the second.

Going from GCTTCACC to CTCATCAG, the “PBM E-score” value falls from -0.00744 to -0.218.

First: TCTCCCAA
Second: ATGTTTAG
The “PBM E-score” value of the first is lower: -0.154 for the first, -0.0384 for the second.

First: AGGATTTA
Second: CAGCGTGA
The “PBM E-score” value of the first is higher: 0.203 for the first, -0.18 for the second.

First: AGGACCGA
Second: AGTGTCAT
The “PBM E-score” value of the first is higher: 0.33 for the first, -0.196 for the second.

First: AAGATAAA
Second: AAGCGGTA
The “PBM E-score” value of the first is lower: 0.151 for the first, 0.35 for the second.

Compared with ACGCGAGG, CCTCTATC is lower in “PBM E-score” value: -0.141 for the first, -0.283 for the second.

Compared with GCGCGCGA, ACAGATGT is lower in “PBM E-score” value: 0.0685 for the first, -0.177 for the second.

First: AGTCGACT
Second: ACTTGGAG
The “PBM E-score” value of the first is lower: -0.416 for the first, -0.00682 for the second.

Compared with AGGTTTGC, ACTATGGC is higher in “PBM E-score” value: -0.267 for the first, -0.106 for the second.

First: GGTGCGCA
Second: ATACCCAC
The “PBM E-score” value of the first is higher: 0.184 for the first, 0.0548 for the second.

Compared with ATTCGACG, AGTGTGGA is lower in “PBM E-score” value: -0.167 for the first, -0.271 for the second.

Going from TATTCAAA to GACGAAAC, the “PBM E-score” value rises from 0.0234 to 0.125.

Compared with ACATTCCC, GCACTGGC is lower in “PBM E-score” value: 0.0919 for the first, -0.0607 for the second.

Going from AACGGTAG to ATGCTTAC, the “PBM E-score” value falls from 0.0823 to -0.266.

Compared with GATCGTGC, CTTCGAAG is lower in “PBM E-score” value: -0.0471 for the first, -0.221 for the second.

Compared with GAAAAGCA, CACCAGAC is higher in “PBM E-score” value: -0.133 for the first, 0.00933 for the second.

Going from CCGCCGCC to AATTGGAG, the “PBM E-score” value falls from 0.361 to -0.206.

Compared with GCAAGCAA, CATGCGAC is higher in “PBM E-score” value: -0.122 for the first, -0.121 for the second.

First: CAAATTTA
Second: ACTCGTCC
The “PBM E-score” value of the first is higher: 0.00388 for the first, -0.168 for the second.

Compared with GAGCACAA, AAGGAAGT is higher in “PBM E-score” value: -0.136 for the first, -0.0449 for the second.

Going from ATCTTGTG to CCCCGGCC, the “PBM E-score” value rises from -0.099 to 0.222.

First: CATAACCG
Second: CGCCTCGA
The “PBM E-score” value of the first is lower: 0.0347 for the first, 0.0565 for the second.

Compared with ATCCTCAG, AACAAAGC is higher in “PBM E-score” value: -0.0825 for the first, 0.0325 for the second.

First: AGTTTCAT
Second: ACGCAAAA
The “PBM E-score” value of the first is lower: -0.192 for the first, -0.126 for the second.

Compared with CCCCTACA, GCAGCATA is higher in “PBM E-score” value: -0.136 for the first, 0.0489 for the second.

First: TACATTCA
Second: CCACCGCA
The “PBM E-score” value of the first is lower: -0.297 for the first, 0.245 for the second.

Going from GGTTTTAC to CCTTCCGA, the “PBM E-score” value falls from 0.282 to 0.0635.

Compared with CCCGCGCA, TGACGACA is lower in “PBM E-score” value: 0.299 for the first, -0.095 for the second.

Compared with TACAGACA, TCTGTCAA is lower in “PBM E-score” value: -0.175 for the first, -0.224 for the second.

Compared with CTGTCTGA, ATGTCCGC is higher in “PBM E-score” value: -0.0918 for the first, 0.443 for the second.

Going from ATGGTCCA to ATAAGGTG, the “PBM E-score” value rises from -0.192 to 0.12.

Compared with GACATCGC, TCGGACAA is higher in “PBM E-score” value: 0.117 for the first, 0.337 for the second.

Going from TTAGATAA to CGTGCATA, the “PBM E-score” value rises from -0.164 to -0.137.

Compared with GAATTATC, CCCCATCC is lower in “PBM E-score” value: -0.0581 for the first, -0.117 for the second.

Compared with CACAAAAC, AATCACGA is lower in “PBM E-score” value: -0.0883 for the first, -0.236 for the second.

Compared with CGGTTTCC, CAACAGTC is lower in “PBM E-score” value: 0.128 for the first, -0.0549 for the second.

Compared with CTCGTATC, AGGTACAT is lower in “PBM E-score” value: -0.132 for the first, -0.173 for the second.

First: CCCTAGGA
Second: AGTTGACA
The “PBM E-score” value of the first is lower: -0.183 for the first, -0.174 for the second.

Going from ACCGCATA to CCGGCGTC, the “PBM E-score” value rises from 0.259 to 0.305.

Going from CTCGCGTC to CAATATAC, the “PBM E-score” value rises from -0.154 to 0.0438.

First: ACACCGAT
Second: ACAGACAC
The “PBM E-score” value of the first is higher: 0.447 for the first, -0.0411 for the second.

Compared with GCTCATCA, CCTACATC is higher in “PBM E-score” value: -0.0295 for the first, 0.0352 for the second.

Compared with GCCATCCC, ACTATTCT is higher in “PBM E-score” value: -0.162 for the first, -0.0185 for the second.

Going from CGTGCTTA to AGTGCTAC, the “PBM E-score” value falls from 0.0311 to -0.234.

Going from CAAGCTGC to CCAAGGAC, the “PBM E-score” value rises from -0.0381 to 0.0754.

First: CAATAACA
Second: AGAATTGC
The “PBM E-score” value of the first is lower: -0.124 for the first, 0.0225 for the second.

First: TGAGCAAA
Second: AGAACGCA
The “PBM E-score” value of the first is higher: -0.00076 for the first, -0.128 for the second.

First: TCGATCAA
Second: CCCATCCA
The “PBM E-score” value of the first is higher: -0.212 for the first, -0.358 for the second.

First: CGATGCCG
Second: CGAGCGGC
The “PBM E-score” value of the first is lower: 0.193 for the first, 0.318 for the second.

Going from CAAAGCAA to ACTCAACC, the “PBM E-score” value falls from -0.115 to -0.136.
